PubChem BioAssay AID1345083 (National Center for Advancing Translational Sciences (NCATS), 2018)
Among all 94,000 compounds or so, about 6,200 (6.6%) were called active. Inconclusive results, whose numbers are uncertain, are shown with a selection of clear calls. The call rests on the fitted dose curve; in most records, active means well fitted inhibition curve with a large enough effect; inconclusive means small, poorly fitted or top-dose-only effect; inactive means flat fitted curve, though single readings scatter. Potencies of inconclusive entries are doubtful fits and often do not repeat.

Assay: Cytotoxic Profiling in HEK 293 Cell Line of Diverse Libraries Using Quantitative High-Throughput Screening; further: nearly all actives have a fitted effect of over 60% in size
Details: HEK 293 viability, ATP luminescence (CellTiter-Glo), 48-72 h; activity change, negative = cytotoxicity: at 115 µM (top of the series) unless noted; series mostly up to 115 µM
How it was run: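 250 HEK 293 cells/well; compound by pintool; incubated 48 or 72 hr at 37 degree Celsius; CellTiter-Glo added, 10 min RT, luminescence imaged.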
On the % scale 0 is the no-effect control and ±100 the full control effect; potency means the concentration at half of the fitted maximal effect; tags describe the fitted curve by direction and shape.

SMILES	Potency	activity change, negative = cytotoxicity	outcome
Cc1ccccc1CN1Cc2nc(-c3cncnc3)ccc2OCC1=O	inconclusive: 100 µM [inhibitor, partial curve, poor fit]		
CN1CC(=O)N(c2cccnc2)Cc2c(NCC3CC3)ncnc21		inactive: -1.16% [at 172 µM]	
CCN(CC)C(=O)[C@@H](C)C1CC[C@@]2(C)Cc3sc(Nc4c(Cl)cccc4Cl)nc3[C@@H](C)[C@@H]2[C@H]1O (some centres undefined)	inconclusive: 56.2 µM [inhibitor, partial curve, poor fit]		
O=C(c1ccccc1F)N1CCC2(CC1)SCC(=O)N2c1ccc(Cl)cc1	inconclusive: 5.62 µM [inhibitor, full curve]		
Cc1noc(C)c1S(=O)(=O)N1CC(N(Cc2cccnc2)CC(C)C)C1	inconclusive: 56.2 µM [inhibitor, partial curve, poor fit]		
CNC(=O)C1CCCN(Cc2cccc(-c3ccc(F)cc3F)c2)C1 (centres undefined)	active: 63.1 µM		
COc1ccc(-c2cc(CC3(NCc4cccc(OC)c4)COC3)no2)cc1	inconclusive: 100 µM [inhibitor, partial curve, poor fit]		
O=C(NCc1ccc(N2CCCCC2)cc1)c1cccc2c1CCN2C(=O)C1CC1	inconclusive: 79.4 µM [inhibitor, single point]		
O=C(CC1CCCCN(Cc2ccccc2)C1=O)NCc1ccc(F)cc1 (centres undefined)	inconclusive: 63.1 µM [inhibitor, partial curve, poor fit]		
COc1ccc(C(=O)NC2CCN(c3cc(-c4cccs4)[nH]n3)C2)c(OC)c1 (centres undefined)	inconclusive: 79.4 µM [inhibitor, partial curve, poor fit]		
O=C(NC1CCCNC1)C1CCN(c2nc(-c3ccccc3)nc3c2CCC3)CC1 (centres undefined)	inconclusive: 50.1 µM [inhibitor, partial curve, poor fit]		
O=C(c1ccccc1)N1CCCC(c2noc(COc3ccccc3)n2)C1 (centres undefined)	inconclusive: 39.8 µM [inhibitor, full curve]		
COc1ccc(-c2ccc(C(=O)N3CCCCC3)c(Cl)c2)nn1	inconclusive: 44.7 µM [inhibitor, partial curve, poor fit]		
O=C1CC(c2ccccc2)N(C(=O)CNC(=O)NC2CCCCC2)CCCCCN1 (centres undefined)		inactive: 1.91%	
O=C(Cn1cccc1-c1nc(-c2ccc(F)cc2)no1)N1CCc2ccccc21		inactive: -9.44%	
CC1(C)CN(Cc2cn(Cc3ccccc3)nc2-c2cc3ccccc3o2)CCO1	inconclusive: 50.1 µM [inhibitor, partial curve, poor fit]		
CCc1cccc2c(C(CC(=O)N3CCC(C)CC3)c3cccc(C)c3)c[nH]c12 (centres undefined)	active: 35.5 µM		
O=C(NCCc1ccccc1)c1cn2cc(-c3ccc(F)cc3)sc2n1	inconclusive: 79.4 µM [inhibitor, partial curve, poor fit]		
FC(F)(F)c1ccc(CN2CCCC3(CC(c4ccccn4)=NO3)C2)cc1 (centres undefined)	inconclusive: 89.1 µM [inhibitor, single point]		
CC(C)CN(CC1CN(C(=O)c2cccc(Cl)c2)CCO1)C(=O)c1cccc2ccccc12 (centres undefined)	active: 35.5 µM		
O=C(c1cnccn1)N1CCC2(CC1)CC(N(Cc1ccc(F)cc1)C1CC1)CCO2 (centres undefined)	inconclusive: 39.8 µM [inhibitor, partial curve, poor fit]		
CCc1n[nH]c(CC2CCN(C(=O)Cc3c[nH]c4ccccc34)CC2)n1			inactive

SMILES	Potency	activity change, negative = cytotoxicity	outcome
O=C(c1nc2sccn2c1-c1ccc(F)cc1)N1CCOCC1		inactive: 4.01% [at 172 µM]	
CN(C)c1ccc(CN2CCOC[C@H]2c2ncc(-c3cccc(Cl)c3)[nH]2)cc1	active: 112 µM		
Cc1ccc(CN2CCC(CN(C)C(=O)c3ccc(C4CCCN4)s3)CC2)o1 (centres undefined)	inconclusive: 31.6 µM [inhibitor, partial curve, poor fit]		
COCc1ncc(C)n1CCNC(=O)c1cnccn1		inactive: -3.55%	
COc1cc(C)ccc1OCc1cc(C(=O)N(C)Cc2ncccc2C)no1	active: 39.8 µM		
O=C(C1CCCCCC1)N1CCC(n2cc(-c3ccsc3)nn2)CC1	inconclusive: 50.1 µM [inhibitor, partial curve, poor fit]		
COc1cccc([C@H]2CN(C(=O)c3c(-c4ccccc4)noc3C)C[C@@H]2N)c1	inconclusive: 79.4 µM [inhibitor, partial curve, poor fit]		
COc1ccccc1Cc1nc(C2CC(=O)N(c3ccc(F)c(Cl)c3)C2)no1 (centres undefined)	inconclusive: 50.1 µM [inhibitor, partial curve, poor fit]		
O=C(Cc1cccc(Cl)c1)N1CCC2(CC1)CCN(Cc1cccs1)c1ccccc1O2	active: 25.1 µM		
O=C(Nc1ccccc1)N1CCCC(C(=O)N2CCC(c3ccccc3)CC2)C1 (centres undefined)	inconclusive: 44.7 µM [inhibitor, partial curve]		
Cc1nc(C)c(C(=O)N2CC(C)(C)C(C)(O)C2)s1 (centres undefined)		inactive: -14.2%	
Cc1ccc(CN2CCCC(c3nc(C(C)C)no3)CCNC(=O)CC2)s1 (centres undefined)	inconclusive: 79.4 µM [inhibitor, partial curve]		
Fc1ccc(Cc2nc3nccc(-c4cccnc4)n3n2)cc1		inactive: 2.57%	
O=C(Nc1ccc(F)cc1)N1CCC(O)(c2csc(CN3CCN(c4ccccn4)CC3)n2)CC1	inconclusive: 50.1 µM [inhibitor, partial curve, poor fit]		
CCOc1cccc(CN2CCOc3ccc(C(=O)NCc4ccccc4F)cc3C2)c1	inconclusive: 50.1 µM [inhibitor, partial curve, poor fit]		
CN(C)C(=O)N(C)C1CCc2ccccc2C1 (centres undefined)		inactive: -7.81% [at 172 µM]	
COc1ccc(C(=O)NC(C(=O)N2CCCCC2)C2CCN(C(=O)c3ccc(F)cc3)CC2)cc1 (centres undefined)		inactive: -23.9%	
COc1ccc(CN2CCNc3cc(-c4ccnc(C)c4)ncc3C2)cc1O	inconclusive: 100 µM [inhibitor, partial curve, poor fit]		
O=c1cc(N2CCOCC2)oc2c(-c3ccc(F)cc3)nccc12	inconclusive: 89.1 µM [inhibitor, partial curve]		
Cc1noc(C)c1-c1cc2cc(C(C)C)oc2c(-c2ccnn2C)n1	inconclusive: 63.1 µM [inhibitor, partial curve, poor fit]		
Oc1cccc(-c2cc(C3=CCOCC3)c3cncn3c2)c1	inconclusive: 141 µM [inhibitor, partial curve, poor fit]		
O=C(Nc1cccc(F)c1)N1CCCC2(C1)Nc1cccnc1NC2=NCc1ccccc1 (centres undefined)	inconclusive: 50.1 µM [inhibitor, partial curve, poor fit]		

SMILES	Potency	activity change, negative = cytotoxicity	outcome
Cn1ncc2c(C(=O)NCc3ccc(C(F)(F)F)cc3)cc(-c3cccc(F)c3)nc21	inconclusive: 89.1 µM [inhibitor, single point]		
c1ccc(CN2CCCCC2c2nc(CCOCC3CCCC3)no2)nc1 (centres undefined)	inconclusive: 50.1 µM [inhibitor, partial curve, poor fit]		
CC(=O)NC1(C)CCCN(Cc2cc(Br)cs2)C1 (centres undefined)	inconclusive: 100 µM [inhibitor, partial curve, poor fit]		
COc1ccc(C(=O)Nc2ccc([C@H]3OCC(=O)N(Cc4cccnc4)[C@@H]3CO)cc2)cc1	inconclusive: 89.1 µM [inhibitor, partial curve, poor fit]		
O=C(O)c1ccccc1CN1CC(COc2ccccc2)C2(C1)CN(c1ccccc1)C2 (centres undefined)	inconclusive: 89.1 µM [inhibitor, partial curve, poor fit]		
Cc1nc(-c2ccc(F)cc2)n(CC(=O)Nc2cc(F)ccc2F)c(=O)c1CCO	inconclusive: 22.4 µM [inhibitor, full curve, poor fit]		
Cc1ccc(N2Cc3c(NCCCc4ccccc4)ncnc3N(C)CC2=O)cc1	inconclusive: 79.4 µM [inhibitor, partial curve, poor fit]		
COc1ccc(NC2CCCN(C(=O)c3ccccc3C(F)(F)F)C2)cc1OC (centres undefined)	inconclusive: 50.1 µM [inhibitor, partial curve, poor fit]		
Cc1cccc(C(=O)N2CCC(c3nc(-c4cccn4C)no3)C2)c1 (centres undefined)	inconclusive: 79.4 µM [inhibitor, single point]		
O=C1NCCCCCCN(S(=O)(=O)c2cccs2)[C@H]2CCCC[C@@H]12		inactive: -15%	
O=C(Nc1ccc2c(N3CCOCC3)ncnc2c1)c1ccc(Br)o1	active: 39.8 µM		
O=C(Cc1ccccc1)NC[C@H]1Cn2c(-c3ccc4c(c3)OCO4)cnc2CO1	inconclusive: 126 µM [inhibitor, single point]		
CCOCC(=O)N1CCc2nc(N3CCN(C)CC3)sc2C1		inactive: -4.36%	
COc1cccc(C(=O)N2CCCC(N3C(=O)c4c(c(C)nn4-c4ccccc4)C3C(C)C)C2)c1 (centres undefined)	inconclusive: 50.1 µM [inhibitor, partial curve, poor fit]		
c1ccc(Nc2cc3c(cn2)NCCN(Cc2ccc4[nH]ccc4c2)C3)cc1	active: 56.2 µM		
Cc1ccc(C2Cn3nnc(C(=O)N4CCC(C(=O)NCCN5CCCC5)CC4)c3CO2)cc1 (centres undefined)		inactive: -7.17%	
CC1=C[C@@H](CNC2CCOCC2)[C@H](C(C)C)C[C@H]1Cc1nc2ccc(Cl)cc2[nH]1	inconclusive: 89.1 µM [inhibitor, partial curve, poor fit]		
O=C1NCCCN1C1CCN([S+](=O)([O-])c2cccc(C(F)(F)F)c2)CC1	inactive		
O=C(c1c[nH]c2ccccc12)N1CCN(c2cc(-c3cccs3)[nH]n2)CC1	active: 44.7 µM		
CCOc1ccccc1CN1CCN(c2cccc(C#N)n2)CC1CCO (centres undefined)	inconclusive: 44.7 µM [inhibitor, partial curve, poor fit]		
